This is one part of the list. Values come from read counts of a selection and are noisy.
Tested on: Drosophila AGO1 (endogenous, S2-R+ lysate)
Assay: AGO1 loading enrichment factor (IP read count / input read count, not library-size normalised) (ratio); higher = more efficient loading into AGO1
Conditions: randomized region: 5' 5N of miR-317 loop
Description: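 HISSA: 5'-phosphorylated, 32P-labelled 20-nt ssRNA oligos (miR-317 loop, first 5 nt randomized, constant 3' part TGAAATGCAAGCAAG as printed in methods; DNA letters for RNA) incubated 1 h at 25°C in S2-R+ cell lysate. Endogenous AGO1 was immunopurified with anti-AGO1 and bound oligos were sequenced after splinted ligation.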
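Note: S2-R+ lysate came from cells stably expressing FLAG-tagged AGO2, enrichment per 5N variant computed with FASTAptamer, reads lacking the constant 3′ segment discarded.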

Sequence | AGO1 loading enrichment factor
TATTCTGAAATGCAAGCAAG | 0.311
CTTCCTGAAATGCAAGCAAG | 0.00426
TTTCATGAAATGCAAGCAAG | 0.765
GACTCTGAAATGCAAGCAAG | 0.301
AATGATGAAATGCAAGCAAG | 0.13
TGGACTGAAATGCAAGCAAG | 0.261
CCTCCTGAAATGCAAGCAAG | 0.0752
TAGCCTGAAATGCAAGCAAG | 0.487
ACCGCTGAAATGCAAGCAAG | 0.13
GCCTTTGAAATGCAAGCAAG | 0.0128
TCCACTGAAATGCAAGCAAG | 0.362
GAGGATGAAATGCAAGCAAG | 1.08
CGGCATGAAATGCAAGCAAG | 0.0417
ATTACTGAAATGCAAGCAAG | 0.257
GCAGATGAAATGCAAGCAAG | 0.048
AACCATGAAATGCAAGCAAG | 0.194
CCCTGTGAAATGCAAGCAAG | 0.0379
GCATTTGAAATGCAAGCAAG | 0.00552
CTTACTGAAATGCAAGCAAG | 0.0137
AGGCCTGAAATGCAAGCAAG | 0.178
GATCCTGAAATGCAAGCAAG | 0.247
CGTGATGAAATGCAAGCAAG | 0.105
TTTTGTGAAATGCAAGCAAG | 1.02
CCAATTGAAATGCAAGCAAG | 0.0647
TTCCTTGAAATGCAAGCAAG | 0.91

Sequence | AGO1 loading enrichment factor
CACGATGAAATGCAAGCAAG | 0.196
CGATGTGAAATGCAAGCAAG | 0.107
CGCCCTGAAATGCAAGCAAG | 0.4
CGACTTGAAATGCAAGCAAG | 0.144
GTGTGTGAAATGCAAGCAAG | 0.0463
TCATTTGAAATGCAAGCAAG | 0.383
ATTCGTGAAATGCAAGCAAG | 0.213
ATGGATGAAATGCAAGCAAG | 0.338
AAAGTTGAAATGCAAGCAAG | 0.112
AAATGTGAAATGCAAGCAAG | 0.154
GGTCCTGAAATGCAAGCAAG | 0.269
TTGACTGAAATGCAAGCAAG | 0.955
ACGTATGAAATGCAAGCAAG | 0.162
GAGTGTGAAATGCAAGCAAG | 0.115
TTTGGTGAAATGCAAGCAAG | 0.778
CAGAATGAAATGCAAGCAAG | 0.0712
GTAGATGAAATGCAAGCAAG | 0.137
CGATATGAAATGCAAGCAAG | 0.0336
CTCCGTGAAATGCAAGCAAG | 0.168
CCGGGTGAAATGCAAGCAAG | 0.48
AAGTGTGAAATGCAAGCAAG | 0.109
ACTATTGAAATGCAAGCAAG | 0.182
GTCTCTGAAATGCAAGCAAG | 0.0528
TGTTGTGAAATGCAAGCAAG | 0.321
TTCCGTGAAATGCAAGCAAG | 0.449

Sequence | AGO1 loading enrichment factor
CCTATTGAAATGCAAGCAAG | 0.111
CCATCTGAAATGCAAGCAAG | 0.168
ACCGTTGAAATGCAAGCAAG | 0.0616
TCATGTGAAATGCAAGCAAG | 0.119
CGTGCTGAAATGCAAGCAAG | 0.00377
GACCGTGAAATGCAAGCAAG | 0.457
GCGGCTGAAATGCAAGCAAG | 0.5
GGGCTTGAAATGCAAGCAAG | 0.109
GAGGGTGAAATGCAAGCAAG | 1.36
CAACATGAAATGCAAGCAAG | 0.114
CCCATTGAAATGCAAGCAAG | 0.0352
GGATCTGAAATGCAAGCAAG | 0.0948
TGTCATGAAATGCAAGCAAG | 0.1
GTGGGTGAAATGCAAGCAAG | 1.25
CTTCTTGAAATGCAAGCAAG | 0.0892
CACAATGAAATGCAAGCAAG | 0.16
TTACGTGAAATGCAAGCAAG | 0.411
ATGACTGAAATGCAAGCAAG | 0.282
CGGTCTGAAATGCAAGCAAG | 0.106
GCCTCTGAAATGCAAGCAAG | 0.032
GTCGGTGAAATGCAAGCAAG | 0.277
ACATTTGAAATGCAAGCAAG | 0.109
TGACTTGAAATGCAAGCAAG | 0.0161
TACCCTGAAATGCAAGCAAG | 2.78
GTATCTGAAATGCAAGCAAG | 0.0655

Sequence | AGO1 loading enrichment factor
CGAATTGAAATGCAAGCAAG | 0.0726
AGGGGTGAAATGCAAGCAAG | 1.95
CACTGTGAAATGCAAGCAAG | 0.0894
GGCTATGAAATGCAAGCAAG | 0.188
CTACCTGAAATGCAAGCAAG | 0.262
GTAGGTGAAATGCAAGCAAG | 0.369
GAAGTTGAAATGCAAGCAAG | 0.135
GGTTCTGAAATGCAAGCAAG | 0.204
TTAGCTGAAATGCAAGCAAG | 0.0536
CTGTTTGAAATGCAAGCAAG | 0.0154
GTGGTTGAAATGCAAGCAAG | 0.234
ACCTGTGAAATGCAAGCAAG | 0.0686
TGGCTTGAAATGCAAGCAAG | 0.0137
ATGTGTGAAATGCAAGCAAG | 0.109
AGCATTGAAATGCAAGCAAG | 0.0986
ACGCTTGAAATGCAAGCAAG | 0.00687
GCGACTGAAATGCAAGCAAG | 6.65
TACCGTGAAATGCAAGCAAG | 1.37
CGAAATGAAATGCAAGCAAG | 0.0918
ACCATTGAAATGCAAGCAAG | 0.108
ACGAGTGAAATGCAAGCAAG | 0.128
TCCGCTGAAATGCAAGCAAG | 0.224
CCCCATGAAATGCAAGCAAG | 0.413
